Test results reported in ChEMBL document CHEMBL1201862, “PubChem BioAssay data set” (2004).
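Step 1: Grow cells in 96-well plates. Step 2: Expose to compound for 48 hours at 5 concentrations. Step 3: Interpolate endpoints linearly; if unreached, use highest concentration. GI50: concentration for 50% inhibition of growth.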 The source made the active and inactive calls. Cut-off read from the data, not from the text of the source: active = GI50 up to about 1.1 µM and inactive = higher.

These molecules were tested on NCI-H322M (assay: NCI tumour cell line growth inhibition, 48 h).
For O=C(O)c1cc(-c2ccc3c(O)ccc(O)c3c2)ccc1O, the GI50 was inactive: 35.5 µM.
Cc1occc1C(=S)Nc1ccc(Cl)c(C(=O)OC(C)C2CC2)c1 (centres undefined) was tested, and the GI50 was inactive: 31.7 µM.
In the case of C[N+](C)(C)CCN[N+]1(C)CCCc2ccccc21 (centres undefined), the GI50 was inactive: > 100 µM.
In the case of N/C(S)=N/N=C/c1ccc(N)cn1, the GI50 was inactive: 4.29 µM.
For O=C(O)CSc1ccn(Cc2ccccc2)c1, the GI50 was inactive: > 100 µM.
For COc1cc(N(C)C)c(OC)cc1C=C1C=CC=C1, the GI50 was inactive: > 100 µM.
In the case of CCc1n[nH]c(=O)n1CCCCCCCCn1c(CC)n[nH]c1=O, the GI50 was inactive: > 100 µM.
With O=c1oc2ccc([N+](=O)[O-])cc2cc1Br the GI50 was inactive: > 100 µM.
CN1C(=O)C(Cl)(C(Cl)(Cl)S(=O)(=O)O)C(=O)c2ccccc21.c1ccncc1 (centres undefined) was tested, and the GI50 was inactive: > 100 µM.
In the case of CN1/C(=C/C(=O)c2ccc(Cl)cc2)Nc2ccccc21, the GI50 was inactive: 78.3 µM.
O=C(NCCCCCCCCCCCCNC(=O)c1cccc2ccccc12)c1cccc2ccccc12 was tested, and the GI50 was inactive: > 100 µM.
For O=[N+]([O-])c1cccc2nc3ccccc3c(NCCCNc3c4ccccc4nc4cccc([N+](=O)[O-])c34)c12, the GI50 was active: < 0.0214 µM.
In the case of COC(=O)[C@H]1[C@@H](C(C)C)O[C@@H](C(C)C)O[C@H]1C(F)(F)F, the GI50 was inactive: > 100 µM.
Cc1c2c(OCCCCN3CCN(c4ncccn4)CC3)nn(C)c(=O)c2c(C)n1-c1ccccc1 was tested, and the GI50 was inactive: 19.4 µM.
In the case of CCOC(=O)/C(=C/c1cc(OC)ccc1OC)CC(=O)O, the GI50 was inactive: > 100 µM.
With O=C(Cn1cc(-c2ccccc2)nn1)NC1CCCCC1 the GI50 was inactive: > 100 µM.
With COc1ccc(C[N+](C)(C)N)cc1OC the GI50 was inactive: > 100 µM.
For CN(C)CC1CCCC(CN(C)C)C1OC(=O)c1ccccc1 (centres undefined), the GI50 was inactive: > 100 µM.
For CC(C)CC(C#CCCOC(=O)c1ccccc1)OC(=O)c1ccccc1 (centres undefined), the GI50 was inactive: > 10 µM.
In the case of CCC(=O)C(C)C1=Nc2nnc(CCCCCCCc3nnc4n3C(=O)C(C(C)C(=O)CC)=N4)n2C1=O (centres undefined), the GI50 was inactive: > 100 µM.
With CS(=O)(=O)CCC1CCC(=O)O1 (centres undefined) the GI50 was inactive: > 100 µM.
With COc1ccc(C(OCC2OC3(COC(c4ccccc4)(c4ccc(OC)cc4)c4ccc(OC)cc4)C(Oc4nc(=O)ccn43)C2O)(c2ccccc2)c2ccc(OC)cc2)cc1 (centres undefined) the GI50 was inactive: > 100 µM.
With NCCCC(N)C(=O)O (centres undefined) the GI50 was inactive: > 100 µM.
In the case of O=[N+]([O-])c1ccc2c(c1)/C(=N/N=C1c3ccccc3Cc3ccccc31)c1cc([N+](=O)[O-])cc([N+](=O)[O-])c1-2, the GI50 was inactive: 2.56 µM.
With CCOC(=O)CNc1nc(=O)c2c(=O)oc(Cl)cc2o1 the GI50 was inactive: 27 µM.
COC(=O)c1cc2ccc(OC(C)=O)c(OC(C)=O)c2cn1 was tested, and the GI50 was inactive: 23.1 µM.
With Cc1cc(O)nc(CNC(=O)Cc2ccccc2)n1 the GI50 was inactive: > 100 µM.
CCCCCCCCCCCc1nnc(N)o1 was tested, and the GI50 was inactive: > 100 µM.
N#CC(c1ccccc1)c1cccc2ccccc12 (centres undefined) was tested, and the GI50 was inactive: 37 µM.
Cn1c2ccccc2c(=NNc2ccc(C(=O)O)cc2)c2ccccc21 was tested, and the GI50 was inactive: 16.2 µM.
In the case of C/C=C(/C)C(=O)OC1CC(C)[C@H]2CC(=O)C(C)=C2CC1C(C)(C)OC(C)=O (some centres undefined), the GI50 was inactive: 40.5 µM.
For C/C(=N/NC(N)=S)C(CN(C)C)C(C1=C(O)c2ccccc2OC1)c1ccccc1 (centres undefined), the GI50 was inactive: > 100 µM.
CCN(CC)CCOc1ccc(/C=C(\C#N)c2ccc(OCCN(CC)CC)cc2)cc1 was tested, and the GI50 was inactive: 14.6 µM.
In the case of CC(CN(C)C)C(=O)/C=C/c1ccc(Cl)c(Cl)c1 (centres undefined), the GI50 was inactive: 3.12 µM.
CN1C2(c3ccccc3)c3c(-c4ccccc4)sc(-c4ccccc4)c3C1(c1ccccc1)C1C(=O)N(c3ccccc3)C(=O)C12 (centres undefined) was tested, and the GI50 was inactive: > 100 µM.
With Cc1cc2c(C(C)C)c(O)c(O)c(/C=N\CCO)c2c(O)c1-c1c(C)cc2c(C(C)C)c(O)c(O)c(/C=N/CCO)c2c1O the GI50 was inactive: 3.05 µM.
NC1=NCC(CN2CCCC2)O1 (centres undefined) was tested, and the GI50 was inactive: > 100 µM.
CCCCON1C[C@@H](O)C(O)[C@@H](O)C1 (some centres undefined) was tested, and the GI50 was inactive: > 100 µM.
With N#CCCN(C(=O)Nc1ccc(NC(=O)N(CCC#N)c2ccccc2)cc1)c1ccccc1 the GI50 was inactive: > 100 µM.
With O=C1CC(c2n[nH]c3ccccc23)C(=O)N1c1ccccc1 (centres undefined) the GI50 was inactive: > 100 µM.
For COC(=O)C1=COC(C)C2C[n+]3ccc4c([nH]c5ccccc54)c3CC12 (centres undefined), the GI50 was inactive: > 100 µM.
With CC1(C)C2CCC(CN)(C2)C1N (centres undefined) the GI50 was inactive: > 100 µM.
With COC(=O)C1=C(C(=O)OC)C2(C(=O)OC)OC1(OC)C(C1(C(=O)OC)C(C(=O)OC)=C1C(=O)OC)=C2C(=O)OC (centres undefined) the GI50 was inactive: > 100 µM.
With CC(N)C(=O)OCN1C(=O)C2C3C=CC(C2C1=O)C1C2C(=O)N(COC(=O)C(C)N)C(=O)C2C31 (centres undefined) the GI50 was inactive: > 100 µM.
Oc1ccc2c(c1)OCC1c3ccccc3OC21 (centres undefined) was tested, and the GI50 was inactive: 41.4 µM.
In the case of CCN(CC)CCC(=O)c1ccc(Oc2ccc(Cl)cc2)cc1, the GI50 was inactive: 17.5 µM.
In the case of CCOC(=O)NN(C(=O)OCC)c1c(C)cc(C)cc1C, the GI50 was inactive: > 100 µM.
In the case of C=CC1CN(C(=O)OCC)N(C(=O)OCC)C1CCc1ccccc1 (centres undefined), the GI50 was inactive: > 100 µM.
In the case of CCCCNC(=S)c1ccc(OC(=O)Nc2ccc(Cl)cc2)cc1, the GI50 was inactive: > 100 µM.
COC(=O)C[C@H](CCSC)NC(=O)C[C@H](CCSC)NC(=O)C[C@H](CCSC)NC(=O)OC(C)(C)C was tested, and the GI50 was inactive: 30.2 µM.
In the case of O=C(Nc1ccc(N2C(=O)CSC2c2ccccc2O)cc1)c1ccc(N2C(=O)CSC2c2ccccc2O)cc1 (centres undefined), the GI50 was inactive: 83.4 µM.
Nc1ccccc1C(=O)CC1OC(=O)c2ccccc21 (centres undefined) was tested, and the GI50 was inactive: 41.1 µM.
With O=S(=O)(/N=c1\[nH]c(-c2cc(O)c(O)c(O)c2)cs1)c1ccc(Cl)cc1Cl the GI50 was active: 0.491 µM.
Nc1ncnc2c1ncn2CCCNO was tested, and the GI50 was inactive: > 100 µM.
With Cn1c2ccc3cc2c(=S)c2cc(ccc21)OCCOCCOCCOCCOCCO3 the GI50 was inactive: > 10 µM.
With O=c1c2ccc(Cl)cc2oc2c(CNc3ccc(S(=O)(=O)Nc4nccs4)cc3)cccc12 the GI50 was inactive: > 100 µM.
Cc1nc(O)nc2nc3ccc(Cl)cc3c(N(CCO)CCO)c12 was tested, and the GI50 was inactive: > 100 µM.
With CCNc1ncnc2c1nnn2CC the GI50 was inactive: > 100 µM.
With O=C(Oc1cncc(Cl)c1)c1cc2ccccc2sc1=O the GI50 was inactive: > 100 µM.
O=C(CCc1cc(O)ccc1O)OCCc1ccccc1 was tested, and the GI50 was inactive: > 100 µM.
For CN(C)/C=N\c1cc[nH]c(=O)n1, the GI50 was inactive: > 100 µM.
With N#C[BH2-][n+]1cn(C2CC(O)C(COP(=O)(O)OC3CC(n4cnc5c(=O)[nH]c(N)nc54)OC3CO)O2)c2nc(N)[nH]c(=O)c21 (centres undefined) the GI50 was inactive: > 100 µM.
For C=C1CC(OC)(C(O)C(=O)N[C@H]2OCO[C@H]3C2O[C@H](C[C@@H](COC)OC)C(C)(C)C3OC)O[C@H](C)[C@@H]1C (some centres undefined), the GI50 was active: < 0.00482 µM.
CC12CCC(=O)C[C@H]1CCC(OC=O)C2Br (some centres undefined) was tested, and the GI50 was inactive: > 100 µM.
COc1ccc(-c2csc(=[N+]3CCCCC3)s2)cc1 was tested, and the GI50 was inactive: 5.68 µM.
COc1cccc(/C=C2\CCCc3ccccc3C2=O)c1 was tested, and the GI50 was inactive: 19.2 µM.
CC(=O)Nc1ccc2c(c1)C(=O)c1ccccc1-2 was tested, and the GI50 was inactive: > 100 µM.
With Oc1ccc(CNCc2ccccc2)c2cccnc12 the GI50 was inactive: 1.31 µM.
With Cn1cnc([N+](=O)[O-])c1Sc1nc2ccccc2s1 the GI50 was inactive: 15.8 µM.
